# Test results as given in the supplement of paper PMC9513381.
# B1: B2003 (protein)
# chain 1: EVQLLESGGGLVQPGGSLTLSCAASGFSFSNYAMTWVRQPPGKGLEWVSGIGGYGGDTYYADSVKGRFTVSRDDSKNTLYLHMNNLRAEDTALYYCAKGVRSNSDYFEYWGQGTLVTVSS
# chain 2: DIQMTQSPSTLSASVRDRVSITCRASQSIGSWVAWYQQKPGKAPKLLIYDASNLESGVPSRFSGSGSGTEFTLTISSLQPDDFATYYCQHYNSYSATFGQGTKLEIK
# B2: B1075 (protein)
# chain 1: EVQLVESGGGLIQPGGSLRLSCAASELIVSYNYMTWVRQAPGKGLEWVSIIYSGGSTFYADSVKGRFTISRDNSKNTLYLQMNSLRPEDTAVYYCARVLPTIWDAFDIWGQGTMVTVSS
# chain 2: DIQLTQSPSFLSASIGDKVTITCRASQGISSYLAWYQQKPGKAPKLLIYAASTLQSGVPSRFSGSGSGTEFTLTIDSLQPEDFATYYCQQLNSYPVGTFGQGTRLEIK
# B3: B1067 (protein)
# chain 1: QVQLVESGGGLVQPGGSLRLSCAASGFPFSQYDMHWVRQTTTKGLEWVAVIGTAGEAYYPDSVKGRITISRDNARNSLYLQINSLRAEDTAVYYCVRDVGQVWPYFDSWGQGILVTVSS
# chain 2: DIQMTQSPSSLSATVGDRVTITCRASQTIGNYLNWYQQKPGKAPKLLIYAASSLQSGVPSRFSGSGSGTDFTLTISSLQAEDFATYYCQQSYTTLALTFGGGTKVEIK
# B4: B1073 (protein)
# chain 1: QVQLVQSGAEMKKPGSSVKVSCEAPGGTFTSYSINWVRQAPGQGLEWMGGIIPTLGTTNYGQKFQGRVTITADKSTSTAYMELSSLRSEDTAVYYCARGKLDFRSGFFYNFRSMDVWGKGTTVTVSS
# chain 2: DIQMTQSPSSLSASVGDRVTITCQASHDISSCLNWYQQKPGKAPKLLIYDASNLETGVPSRFSGSGSGTGFTFTISSLQPEDIATYYCQQYENLPLTFGGGTKVEI
# B5: B1065 (protein)
# chain 1: QVQLVESGGGLVKPGGSLRLSCAASGFTFSNAWMNWVRQAPGKGLDWVGRIKNRRDGGTTDYAAPVKGRFTISRDDSKNTLYLQMNSLKIEDTAVYYCTTDRGDVSRFLDLFHDAFDVWGQGTMVTVSS
# chain 2: DIQMTQSPSSLSASVGDRVTISCRANQSIRYYLNWYQQKPGKAPKLLIYAVSSLHSGVPSRFSGSGSDTDFTLTITSLQPEDFATYYCQQCYTTPHFGGGTKVEIK
# B6: B1070 (protein)
# chain 1: QVQLQESGPGPVKPSETLSLTCTVSGASVTSHNFYWSWIRQPPGKGLEWIGFFSSRGSPNYNPSLKSRVTISVDMSKSQFSLRLSSVTAADTAVYYCARETYFYDRNGNYLSDGFDSWGQGTLVTVS
# chain 2: DIQMTQSPSSLSASVGDSVTITCRASQTISTWLAWYQQKPGQAPKLLIYQASSLETGVPSRFSGSGSGTEFTLTIGSLQPDDFATYYCQQYKSSSPYTFGQGTKLEIK
# B7: B1071 (protein)
# chain 1: QVQLVQSGAEVKKPGSSVKVSCKASGGTFSRYAIHWVRQAPGEGLEWVGGIIPMFGAADYAQKFQGRVTITADKSTSTAYMELSGLKSEDTAIYYCARGQIQWELLSFAVGVHFDYWGQGTLVTVSS
# chain 2: DIVMTQSPESLAVSLGERATIKCKSSQSVLYSSNNKNYLAWYQQKPGQPPKLLIYWASYRESGVPDRFSGSGSATDFTLTISSLQAEDVAVYYCQQSYPVPPYTFGQGTKLEIK
# B8: B1064 (protein)
# chain 1: EVQLLESGGGLVQPGGSLRLSCRASGFTFSNYAMSWVRQAPGKGLECVSGISGSGGFTNYADPVKGRFIISRDDSKNTLYLQMNSLRGEDTAVYFCAKGDWLSPNLNHYYMDLWGKGTTVTVSS
# chain 2: DIQMTQSPSTLSASVGDRVTIACRASQSISNWLAWYQQKPGKAPKLLIYKASSLESGVPSRFSGSGSGTEFTLTISGLQPDDFATYYCQQYNSFPLTFGGGTKVDIK
# B9: B2002 (protein)
# chain 1: EVQLLESGGALAQPGGSLRLSCAASGFPFSTYAMSWVRQAPGKGLEWVSGISSRGGRTYNADSVKGRFTISRDNSKNTLYLQMNSLRAEDTAVYYCARDEILHGDNPEYFQHWGQGTLVTVSS
# chain 2: DIQMTQSPSTLSASVGDRVTITCRASQTINSWLAWYQQKPGKAPTLLIYDASSLKSGAPSRFSGSGSGTEFILTISSLQPDDFATYYCQQYHSYSPLTFGGGTKVEIK
# B10: B1066 (protein)
# chain 1: QVQLVESGGGSVKPGGSLRLSCAGSGLSFSRAWMNWVRQAPGKGLEWVGRIKSKNDGAAIDYAAPVKGRFTISRDDSRSTLYLQMDSLKTEDTAVYYCTTDLTSITMVEHDAFDIWGQGTMVTVSS
# chain 2: DIQMTQSPSSLSASVGDRVTITCRAGQSVSTFLNWYQQRPGKAPKLLIYAASILQSGVPSRFSGSGSGTDFTLTISNLQPEDFATYYCQQSYGPLGSFGQGTKLEIK
# B11: B1074 (protein)
# chain 1: QVQLVQSGAEVKKPGSSVKVSCKASGGTLSNYAISWVRQAPGQGLEWMGGIIPIFGTTNYAQKFQGRVTITADESTSTANMELDSLRSEDTALYFCATYSSGWYSMGDFYYYYMDVWGKGTTVTVSS
# chain 2: QSALTQPASVSGSPGQSITISCSGTSSDVGGFNYVSWFQQHPGKAPKLMICDVSFRPSGVSDRFSGSKSGNTASLTISGLQAEDEADYYCSSFTRTNTYVFGTGTKVT
# B12: B1072 (protein)
# chain 1: EVQLVQSGAEVKKPGKSLMISCKASGYSFTDYWINWVRQMPGKGLEWMGRIDPSDSYTNYSPSFQGHVTISADKSINTAFLQWSSLKASDTAVYYCARGQYHLDPIGHYFFDFWGQGALVTVSS
# chain 2: QSALTQPASVSGSLGQSITISCTGTSSDVGSYDLVSWYQQYPGKAPKLIIYEVIKRPSGVSNRFSGSKSGNTASLTISGLQADDEAHYYCCSYAGIITYVVFGGGTKLTVL
# B13: B1068 (protein)
# chain 1: QVQLVQSGAEVKKPGASVKVSCKTSGYTLSNYGLSWVRQAPGQGLEWMGWISAHDGDTKYAQKFQGRVTMTTDTSTSTAYMELRSLRSDDTAMYYCAREGGLTTMTLSDAFDIWGQGTMVIVSS
# chain 2: DIVMTQSPDSLAVSLGERATINCKSSQSVLYTSNNQDYLAWYQQKPGQPPKLLIYWASARQSGVPDRFSGSGSGTAFTLTISSLQAEDVAVYYCQQYFQTPLTFGGGTKVEIK
# B14: B1069 (protein)
# chain 1: QVQLVQSGAEVKKPGSSVKVSCKASGGTFSSSSITWVRQAPGQGLEWMGGIIPTLGIANYAQKFQDRLTLIADKSTSTASMELSSLRSDDTAVYYCARVAGYSGYGAAEYFDLWGRGTLVTVSS
# chain 2: QSVLTQPPSVSGAPGQRVTISCAGTNSNIGAGYDVHWYQQLPGTAPKLLIYANNNRPSGVPDRFSGSKSGTSASLAITGLQAEDEADYYCQSYDSSLSGSVFGGGTSLTVL
# Target: SARS-CoV-2 Wuhan-Hu-1 spike pseudovirus
# Assay: pseudovirus neutralization IC50; higher = weaker neutralization
# Experimental: (§1)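 Single-round luciferase reporter pseudovirus mixed with antibody dilutions and put on 293T-ACE2 cells for 48 h; signal relative to no-antibody wells, four-parameter fit.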
row,Binder,pseudovirus neutralization IC50 [ng/mL]
1,B1,> 1000
2,B2,8.16
3,B3,> 1000
4,B4,8
5,B5,6.49
6,B6,17.7
7,B7,2.62
8,B8,7.63
9,B9,16.3
10,B10,7.44
11,B11,> 1000
12,B12,14.2
13,B13,45.8
14,B14,76.3

# Target: SARS-CoV-2 Wuhan-Hu-1 spike pseudovirus
# Assay: pseudovirus neutralization IC90; higher = weaker neutralization
# Experimental: as §1
row,Binder,pseudovirus neutralization IC90 [ng/mL]
1,B1,> 1000
2,B2,28.2
3,B3,> 1000
4,B4,103
5,B5,20.3
6,B6,265
7,B7,27.5
8,B8,34.3
9,B9,53.1
10,B10,43.7
11,B11,> 1000
12,B12,111
13,B13,536
14,B14,> 1000

# Target: SARS-CoV-2 Delta (B.1.617.2) spike RBD
# Assay: ELISA binding EC50; higher = weaker binding; ELISA of recombinant human antibody on coated antigen, from 10 µg/ml in fourfold dilutions; four-parameter fit.
row,Binder,ELISA binding EC50 [ng/mL]
1,B1,49.9
2,B2,4.49
3,B3,6.3
4,B4,> 1000
5,B5,3.9
6,B6,5.46
7,B7,> 1000
8,B8,17.6
9,B9,5.89
10,B10,2.52
11,B11,17
12,B12,6.78
13,B13,9.61
14,B14,7

# Target: SARS-CoV-2 Omicron BA.1 spike protein
# Assay: as above
row,Binder,ELISA binding EC50 [ng/mL]
1,B1,1.89
2,B2,> 1000
3,B3,15
4,B4,5.93
5,B5,10.7
6,B6,8.14
7,B7,4.15
8,B8,> 1000
9,B9,11.9
10,B10,5.17
11,B11,5.69
12,B12,> 1000
13,B13,40.6
14,B14,2.94

# Target: SARS-CoV-2 Wuhan-Hu-1 spike receptor-binding domain
# Assay: as above
row,Binder,ELISA binding EC50 [ng/mL]
1,B1,1.36
2,B2,4.7
3,B3,2.97
4,B4,2.45
5,B5,2.54
6,B6,2.46
7,B7,3.26
8,B8,2.26
9,B9,2.95
10,B10,1.76
11,B11,4.43
12,B12,3.63
13,B13,2.32
14,B14,3.31

# Recombinant human monoclonal antibodies (heavy:light variable regions). ELISA EC50 on the named antigen, from 10 µg/ml down; IC50 / IC90 against spike pseudovirus on 293T-ACE2 cells, 48 h; lower = stronger. Calls: IC50 above 1,000 ng/ml = non-neutralizing; EC50 above 1,000 ng/ml = non-binder. The source prints 1000 for neutralization that was not reached; it is given as >1000 ng/ml. Only binders of the Wuhan-Hu-1 domain have neutralization values.
